Data: PubChem BioAssay AID1240 (Sanford-Burnham Center for Chemical Genomics, 2008)
Out of some 50,000 compounds screened, about 800 (1.6%) showed an effect of 50% or more. The list shows a part of the results.

Target: Bcl-2-like protein 10 (Homo sapiens) (UniProt Q9HD36)
Test: TR3 peptide-Bcl-B binding displacers, biochemical primary FP assay, phenotype converters (AID 1240);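 further: 0% = Bcl-B with tracer peptide and DMSO and 100% = tracer peptide lacking Bcl-B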
Details: GST-Bcl-B / FITC-TR3 peptide fluorescence polarization; stronger effect = higher value; compound at 3.75 mg/L

Chain of UniProt Q9HD36 (Q9HD36 whole entry, looked up): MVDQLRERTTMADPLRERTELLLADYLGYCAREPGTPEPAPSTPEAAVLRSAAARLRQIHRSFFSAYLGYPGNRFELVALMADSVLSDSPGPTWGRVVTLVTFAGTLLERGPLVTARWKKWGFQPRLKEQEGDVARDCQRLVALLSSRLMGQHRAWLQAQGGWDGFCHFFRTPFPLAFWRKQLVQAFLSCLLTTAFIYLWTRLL

Structure (SMILES)	displacement [%]
O=c1[nH]cnc(O)c1C(c1ccc(F)cc1)c1c(O)nc[nH]c1=O	-1.1
CC(C1COc2ccccc2O1)N1C(=O)CCC1=O (stereo not drawn)	2.4
COc1ccccc1N1CCN(C(=O)CN(c2ccc(C)cc2C)S(=O)(=O)c2ccccc2)CC1	13.9
O=C(Nc1ncc(S(=O)(=O)c2ccc([N+](=O)[O-])cc2)s1)c1ccc(-c2ccccc2)cc1	2
Cc1oc2c(CN3CCC(C)CC3)c(O)ccc2c(=O)c1-c1nc2ccccc2s1	6.9
CN1CCC(=NOC(=O)c2ccc(F)cc2)CC1	-12
Cc1ccc(C)c(NC(=O)Cc2ccc(Br)cc2)c1	-7.5
COc1ccccc1NC(=O)CCC1CCCC1	-4.6
COc1ccc(C2OCC3(COC(C)=O)C(C)C=C(C)C2C3C)cc1 (stereo not drawn)	-5.3
O=C(CN1C(=O)S/C(=C/c2ccccc2F)C1=O)Nc1ccccc1C(=O)O	-9.9
O=C(COc1ccc(Cl)cc1Cl)N1CCCc2ccccc21	-4.7
CCc1ccc2c(c1)C1(NN=C(c3ccccc3)S1)C(=O)N2 (stereo not drawn)	-20.2
CCC(=O)Nc1ccc(NC(=O)c2cc3ccccc3cc2OC)cc1	3
COC(=O)CSc1nnc(-c2ccccc2)c(-c2ccccc2)n1	-31.5
Cc1ccc(-n2nc3cc(C)c(NC(=O)COc4ccc(C)c(C)c4)cc3n2)cc1	2.6
CC(=O)c1ccc(NC(=O)c2ccc(-c3cccc([N+](=O)[O-])c3)o2)cc1	-4.7
Cc1ccc(S(=O)(=O)NC(=O)Nc2c(C)cccc2C)cc1	8.4
COc1ccc(S(=O)(=O)N(CC(=O)Nc2ccc(C(C)=O)cc2)c2ccc(C)cc2)cc1OC	12.1
COc1cccc2c(=O)c(CCC(=O)O)c(C)[nH]c12	11.9
COc1ccc(N(CC(=O)Nc2ccc(Cl)cc2C)S(=O)(=O)c2ccc(C)c([N+](=O)[O-])c2)cc1	16.7
COc1ccc(Cl)cc1NC(=O)C1=C(C)NC(=S)NC1c1ccccc1Br (stereo not drawn)	15
N#C/C(=C\c1cn(CC(=O)Nc2ccccc2)c2ccccc12)C(=O)Nc1ccc(F)cc1	-30.3
Cc1ccc(C2CC(C(F)(F)F)n3ncc(C(=O)NCCN4CCOCC4)c3N2)cc1 (stereo not drawn)	4.8
CCCN(CCC)CN1C(=O)S/C(=C/c2ccc(C)cc2)C1=O	12.1
O=C1c2ccc(Oc3cccc([N+](=O)[O-])c3)cc2C(=O)N1c1ccc(Cl)cn1	-13.5
Cc1ccc(S(=O)(=O)Nc2cc(Sc3nc4ccccc4s3)c(O)c3ccccc23)cc1	-29.8
O=[N+]([O-])c1ccc(Cl)c(/C=N/N2CCN(Cc3ccccc3Cl)CC2)c1	8.5
COc1c(Cl)cc(C(=O)Nc2ccc(C)cc2[N+](=O)[O-])cc1Cl	0.1
